Among the data in PubChem BioAssay AID1240 (Sanford-Burnham Center for Chemical Genomics, 2008) are displacement values, retold here.

Each structure is given as a SMILES string. Where “and” joins values, the source holds several entries; their conditions need not be identical. Equal entries are not always repeated. Hit rate of the full screen: of about 50,000 compounds, about 800 (1.6%) showed an effect of 50% or more. Some of the results follow.

The test has as its target Bcl-2-like protein 10 (Homo sapiens) (UniProt Q9HD36). The experiment in a line: TR3 peptide-Bcl-B binding displacers, biochemical primary FP assay, phenotype converters (AID 1240).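 Note: 0% = Bcl-B with tracer peptide and DMSO and 100% = tracer peptide lacking Bcl-B.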 The following applies: GST-Bcl-B / FITC-TR3 peptide fluorescence polarization; stronger effect = higher value; compound at 3.75 mg/L. (In general: In fluorescence polarisation assays a small probe gives low polarisation when free and higher when bound to something large.)
UniProt Q9HD36, sequence (Q9HD36 whole entry, looked up): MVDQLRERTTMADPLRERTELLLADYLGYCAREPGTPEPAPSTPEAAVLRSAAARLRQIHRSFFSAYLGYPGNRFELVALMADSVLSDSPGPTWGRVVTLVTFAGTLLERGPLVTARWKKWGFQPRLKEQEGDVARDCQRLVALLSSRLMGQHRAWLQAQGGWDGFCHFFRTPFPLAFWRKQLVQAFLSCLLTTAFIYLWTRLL
Consider `CCCOc1ccc(C(=O)Nc2ccc(-c3nc4cc(C)c(C)cc4o3)c(O)c2)cc1`, for which the displacement came out at 10.8%.

Regarding `NC(=O)c1ccc(NC(=O)CCN2C(=O)c3ccccc3C2=O)cc1`, the displacement amounted to 26.7%.

On to `Cc1sc2nc(-c3ccc(C(C)C)cc3)[nH]c(=O)c2c1C`, for which the displacement is -9.2%.

For `Cc1ccc(S(=O)(=O)Nc2sc(Cc3ccccc3)c(C)c2C(N)=O)cc1`, the displacement was 5.2%.

For `CCc1cccc(C)c1NC(=O)c1ccoc1C`, the displacement turned out to be 15.2%.

Turning to `COc1cccc2cc(C(=O)Nc3ccccc3C(=O)O)c(=O)oc12`, the displacement was 7.8%.

As for `CNS(=O)(=O)c1cc(O)c2c(S(=O)(=O)NC)cc(S(=O)(=O)NC)cc2c1`, the displacement turned out to be 4%.

In the case of `COC(=O)CN1C(=O)/C(=C\c2ccco2)SC1=S`, the displacement was determined as 13.3%.

Turning to `N/C(=N\OC(=O)C12CC3CC(CC(C3)C1)C2)c1ccccn1`, the displacement was -8%.

With `Cc1ccc(C(=O)N/N=C/C=C/c2ccc([N+](=O)[O-])cc2)cn1`, the displacement turned out to be 26.3%.

As for `CC(=O)Nc1cc2nn(-c3ccc(C)cc3)nc2cc1C`, the displacement is 1.3%.

Take `COc1cccc(C2C(C(C)=O)=C(O)C(=O)N2CCN(C)C)c1` (configuration not stated): the displacement is 5.2%.

With `COc1ccc(-n2c(SCC(=O)N3CCCCC3)nc(O)c(Cc3ccccc3)c2=O)cc1`, the displacement is 8.7%.

Take `COC(=O)CN(c1ccc(OC)cc1OC)S(=O)(=O)c1ccc(C)cc1`: the displacement is 5.4%.

For `CC1=C(C(=O)N/N=C/c2c(O)ccc3ccccc23)Sc2ccccc2N1`, the displacement was determined as 2.3%.

Consider `N#C/C(=C\c1ccc2c(c1)OCO2)C(=O)Nc1ccc(F)cc1`, for which the displacement was -12.3%.

Consider `COc1cc(/C=C(/C#N)c2nc3ccccc3[nH]2)ccc1OC(C)C`, for which the displacement was -3.4%.

On to `COc1cc2c(cc1OC)C(/C(=N/O)C(C)=O)=NCC2`, for which the displacement was -6%.

For `Cc1nc(-c2ccccc2)nc(N/N=C/c2cccc(F)c2)c1C`, the displacement is -2.5%.

On to `CC1CCCCN1C(=O)c1cc(-c2ccccc2)nc2ccccc12` (configuration not stated), for which the displacement turned out to be 3.9%.

For the molecule `O=c1oc(-c2ccc(Br)cc2)nc2ccccc12`, the displacement was -2.8%.

Take `CCOc1ccc(C(=O)Nc2cc3nn(-c4ccc(OC)cc4)nc3cc2C)cc1`: the displacement amounted to 9.1%.

`Cc1cccc(-n2c(C)cc(/C=N\NC(=O)c3ccco3)c2C)c1`: the displacement is -18.2%.

Consider `Brc1cccc(CN2CCN(C3CCN(Cc4ccccc4)CC3)CC2)c1`, for which the displacement was -28.6%.

Consider `COc1ccc(OC)c(C2NC(=O)NC(C)=C2C(=O)OCCc2ccccc2)c1Br` (configuration not stated), for which the displacement turned out to be 11%.

`O=C(COc1ccc(Br)cc1)Nc1cc(Cl)cc(Cl)c1`: the displacement stood at 3.9%.

In the case of `Cc1ccc(C)c(N2C(=O)C3C4CC(=O)C(c5ccccc54)C3C2=O)c1` (configuration not stated), the displacement was -14.8%.

Consider `COc1ccc(CN2CCN(S(=O)(=O)c3ccc(C)cc3)CC2)c(OC)c1OC`, for which the displacement was -4.4%.

With `C=CCOc1ccc(Cl)cc1/C=C1/SC(=S)N(Cc2ccccc2)C1=O`, the displacement amounted to 12.4%.

For the molecule `CC(C)c1ccccc1OCC(=O)Nc1ccccc1C(=O)O`, the displacement is -3.3%.

In the case of `CC1=C(C)CC(C(=O)Nc2ccc(N3C(=O)c4ccccc4C3=O)cc2)C(C(=O)O)C1` (configuration not stated), the displacement worked out at 18.6%.

`O=C(Nc1ccc(F)cc1)c1ccccc1`: the displacement came out at 11%.

Take `CC(=O)Nc1ccc(N2C(=O)C3=C(C2=O)C2C=CC3C2)cc1`: the displacement was -9%.

For the molecule `COc1cc(-c2nc3sc4c(c3c(=O)[nH]2)CCCC4)ccc1OCC(=O)O`, the displacement is -6.5%.

`O=C(c1ccccc1Cl)N1CCN(c2c(Cl)cccc2[N+](=O)[O-])CC1`: the displacement was 8.5%.

Turning to `O=c1[nH]c(O)c(C=NCc2ccc(Cl)c(Cl)c2)c(=O)[nH]1`, the displacement stood at 3.8%.

With `O=C(c1cccs1)N1CCN(C(c2ccccc2)c2ccccc2)CC1`, the displacement was 5.1%.

`CCOC(=O)/C(C#N)=C\c1c(C)c(C)c(/C=C(/C#N)C(=O)OCC)c(C)c1C`: the displacement is 7.7%.

With `CC(=O)Oc1cccc(C(=O)Nc2ccc3c(c2)C(=O)N(c2ccccc2)C3=O)c1`, the displacement is -15.3%.

On to `COc1ccc(C2CC(C(F)(F)F)n3ncc(C(=O)NC(C)(C)C)c3N2)cc1` (configuration not stated), for which the displacement stood at 3.6%.

In the case of `COc1ccc(N2C(=O)NC(=O)/C(=C\c3ccoc3)C2=O)cc1`, the displacement was -15.8%.

Consider `Cc1cccc2c(C(=O)O)cc(C(=O)O)nc12`, for which the displacement worked out at 2.2%.

Regarding `COc1ccc(-c2cc(C(F)(F)F)n3ncnc3n2)cc1`, the displacement was -6.6%.

As to `N/C(=N\S(=O)(=O)c1ccccc1)c1ccccc1`, the displacement was 11.7% and 9.4%.

For `COC(=O)c1c(NC(=O)COc2ccc(C)cc2C)sc2c1CCC(C)C2` (configuration not stated), the displacement was -5.6%.

In the case of `Cc1cccc(N2C(=O)NC(=O)/C(=C/c3ccc(-c4ccc(C(=O)O)cc4)o3)C2=O)c1`, the displacement is -58.8%.

Regarding `O=C(Nc1cccc(-c2cn3ccccc3n2)c1)c1ccc(Br)cc1`, the displacement was determined as 4.7%.

Consider `O=C1NN(c2ccccc2)C(=O)/C1=C/c1ccccc1OCc1ccccc1F`, for which the displacement is 11.4%.

`Cn1c(=O)c(C(=O)NC2CCCCC2)c(O)c2ccccc21`: the displacement worked out at 2.3%.

`O=C(CCN1C(=O)/C(=C/c2cccs2)SC1=S)Nc1ccccn1`: the displacement was 126%.

Take `Cc1onc(-c2ccccc2)c1C(=O)Nc1ccccc1Oc1ccccc1`: the displacement was determined as 10.9%.

Turning to `O=C1NC(=Nc2ccc(O)cc2)S/C1=C/c1ccco1`, the displacement worked out at 33.9%.

With `O=C(N/N=C\c1cccc([N+](=O)[O-])c1)c1cncc(Br)c1`, the displacement was 5.3%.

Take `O=C(Nc1ccc(O)c(-c2nc3ccccc3o2)c1)c1cccnc1`: the displacement was -0.4%.

On to `OC(CN1CCNCC1)Cn1c2ccccc2c2ccccc21` (configuration not stated), for which the displacement was -7.2%.

For the molecule `CCCCOC(=O)c1ccc(NC(=O)c2cccc(Cl)c2Cl)cc1`, the displacement worked out at 10.6%.

Regarding `CC1(C)OC2C(C(=O)O)O[C@@H](n3cnc4c(N)ncnc43)C2O1` (some centres not stated), the displacement is -5.9%.

In the case of `O=[N+]([O-])c1ccc(/C(=C/C=Nc2ccccc2)Nc2ccccc2)cc1`, the displacement worked out at 9.8%.

With `O=C1C(=O)N(Cc2ccccc2)C(c2cccc(F)c2)/C1=C(/O)c1ccccc1` (configuration not stated), the displacement is 6.8%.

Consider `COc1cc(/C=N\NC(=O)c2ccc([N+](=O)[O-])cc2)ccc1OC(=O)c1cccc2ccccc12`, for which the displacement was determined as 13.7%.

On to `CC(=O)c1ccc(NC(=S)NC(=O)c2cccnc2)cc1`, for which the displacement stood at 9%.

Take `Cc1ccc(C2(C)N(O)C(C)C(c3ccccc3)=[N+]2[O-])o1` (configuration not stated): the displacement amounted to 1.8%.

Take `Cc1csc(-c2cc3ccc(OC/C=C/c4ccccc4)cc3oc2=O)n1`: the displacement is 38.3%.

`Cc1ccc(-c2nc3ccccc3o2)cc1NC(=S)NC(=O)c1ccc(Cl)cc1`: the displacement stood at 1.4%.

`COc1ccc(C(=O)N2CCN(Cc3ccc(C(F)(F)F)cc3)CC2)cc1OC`: the displacement was -12.3%.

Turning to `CC(C)c1ccc(N2C(=O)NC(=O)/C(=C/c3ccc(N(C)C)cc3)C2=O)cc1`, the displacement is 41.3%.

In the case of `CC(N=Cc1cc([N+](=O)[O-])cc(Br)c1O)C12CC3CC(CC(C3)C1)C2` (configuration not stated), the displacement came to 9.3%.

With `O=C(Nc1ccccc1C(=O)O)c1cccc(NC(=O)C(c2ccccc2)c2ccccc2)c1`, the displacement amounted to 4.2%.

For `CCOc1ccc(S(=O)(=O)N(CC(=O)Nc2ccc(C)cc2C)c2ccc(C)cc2)cc1`, the displacement is 14.1%.

In the case of `COc1ccc(CC(=O)N2CCOCC2)cc1OC`, the displacement is -4.2%.

On to `O=c1/c(=C/c2ccccc2OS(=O)(=O)c2ccccc2[N+](=O)[O-])sc2nc3ccccc3n12`, for which the displacement is 13.5%.

As to `CCCNC(=O)C12CC3CCC(CC(C3)C1)C2`, the displacement worked out at 6.5%.

With `c1ccc(CN2CCC(N3CCN(Cc4ccccc4)CC3)CC2)cc1`, the displacement turned out to be 7.4%.

With `O=S(=O)(NCCOc1ccccc1Cl)c1ccc2ccccc2c1`, the displacement amounted to 13.1%.

For the molecule `Nc1ncc(Cc2ccc(F)cc2)s1`, the displacement was -2.5%.

Regarding `CCCCOC(=O)c1cccc(NC(=O)COc2ccc3c(C)cc(=O)oc3c2)c1`, the displacement was -41.8%.

Turning to `COC(=O)C1=C(C)N(C)C(C)=C(C(=O)OC)C1c1cc(Br)c(OC)c(OC)c1`, the displacement was -3.3%.

Regarding `CCCOc1ccccc1C1NC(=O)c2c(sc3c2CCCC3)N1` (configuration not stated), the displacement was 17.9%.

Regarding `COC(=O)CN(c1ccccc1Cl)S(C)(=O)=O`, the displacement is 2%.

As to `N#CC1=C(N)Oc2cc(N)ccc2C1C1CCCCC1` (configuration not stated), the displacement was -6%.

Regarding `COC(=O)c1ccc(C(=O)OC)c(NC(=O)c2c(OC)cccc2OC)c1`, the displacement turned out to be 15.9%.

As for `CC(C)(C)c1ccccc1OCCCCCCN1CCOCC1`, the displacement was found to be 5.8%.

For `O=C(Nc1ccccc1[N+](=O)[O-])c1c(-c2cnc3ccccc3c2C(=O)Nc2ccccc2[N+](=O)[O-])cnc2ccccc12`, the displacement is -1.5%.

As for `Cc1cc(C)c2oc(-c3ccc(NC(=O)COc4ccccc4[N+](=O)[O-])cc3)nc2c1`, the displacement amounted to 89.3%.

For `O=C(NC(NC(=S)Nc1ccc(Br)cc1)C(Cl)(Cl)Cl)c1ccccc1F` (configuration not stated), the displacement was -1.1%.

On to `COc1ccc(N(CC(=O)Nc2ccc(C)cc2C)S(=O)(=O)c2ccc(C)cc2)cc1`, for which the displacement stood at 4.5%.

For the molecule `COc1ccc(-n2nc3cc(C)c(NC(=O)c4cc(Cl)ccc4OC)cc3n2)cc1`, the displacement is -5.3%.

On to `CC(C)C(=O)Nc1cccc2c1C(=O)N(c1ccccc1)C2=O`, for which the displacement stood at 5.7%.

As for `O=C1Nc2ccccc2/C1=N/N1C(=O)CSC1=S`, the displacement is 26.4%.

In the case of `COc1ccc(/C=C(\NC(=O)c2ccccc2)C(=O)Nc2ccc(Cl)cc2)cc1OC`, the displacement is 1.2%.

Regarding `CCOc1cc(/C=C2\C(=O)NC(=S)N(c3ccc(Br)cc3)C2=O)ccc1O`, the displacement is 6.3%.

As to `COc1ccc([N+](=O)[O-])cc1NC(=S)Nc1ccccc1`, the displacement is -5.5%.

On to `CC1=C(C(=O)Nc2ccccc2Cl)C(c2cccc(Br)c2)NC(=O)N1` (configuration not stated), for which the displacement worked out at 3.9%.

`CC1(C)CC(=O)CC(=Nc2ccccc2N)C1`: the displacement was 5.8%.

Take `Cc1ccccc1NC(=O)c1ccc2ccccc2c1`: the displacement was -2.7%.

For `O=C1C(=O)N(C2CCCCC2)C(=O)N1c1ccc(Cl)cc1`, the displacement came out at 1.1%.

For the molecule `COc1ccc(CCN(C(=S)Nc2ccccc2)C2CC(=O)N(c3ccccc3)C2=O)cc1` (configuration not stated), the displacement was -5.8%.

Turning to `CCOC(=O)C1=C(C)N=C2SCC(=O)N2C1c1cc(OC)ccc1OC` (configuration not stated), the displacement was determined as 0.9%.

Turning to `COc1cccc(OCCCCCCN2CCCC2)c1`, the displacement came out at 8.5%.

As to `NC(=O)c1c(NC(=S)NC(=O)c2ccccc2Cl)sc2c1CCC2`, the displacement was 13.7%.

Take `NC(=O)NC1CCCc2c1[nH]c1ccc(Cl)cc21` (configuration not stated): the displacement is -10.7%.

In the case of `c1cc2c(c(NCc3ccncc3)c1)CCCC2`, the displacement was -0.1%.

With `Cc1ccc2[nH]c3nc(N/N=C/c4cc(Br)c(O)c(Br)c4)nnc3c2c1`, the displacement worked out at 1.3%.

With `COc1cccc(OCCOc2ccc(/C=C3\C(=O)NN(c4ccccc4)C3=O)cc2)c1`, the displacement is 1.9%.

In the case of `CCC(C)c1ccc(NS(=O)(=O)c2ccc(NC(C)=O)cc2)cc1` (configuration not stated), the displacement amounted to 12.3%.

Consider `CN(c1ccccc1C(=O)O)C1SC(=O)N(c2ccccc2)C1=O` (configuration not stated), for which the displacement stood at 138%.

With `CC(=O)Nc1nonc1-c1nc2ccccc2n1Cc1nnc(C)o1`, the displacement is 30.5%.
